Source: the supplement of paper PMC3334620
In all, about 33,000 sequences were measured (“E-score (-0.5 to 0.5)”: median about -0.035, highest 2% from about 0.35 on). The list shows a part of the results.

molecular target: T1, Pdr3 (UniProt P33200); experiment: PBM E-score (8-mer binding enrichment) (E-score (-0.5 to 0.5)); higher = stronger / more preferred TF binding; most listed sequences are background and not binding sites; settings: protein concentration: 200 nM; construct: GST-full length
T1 sequence: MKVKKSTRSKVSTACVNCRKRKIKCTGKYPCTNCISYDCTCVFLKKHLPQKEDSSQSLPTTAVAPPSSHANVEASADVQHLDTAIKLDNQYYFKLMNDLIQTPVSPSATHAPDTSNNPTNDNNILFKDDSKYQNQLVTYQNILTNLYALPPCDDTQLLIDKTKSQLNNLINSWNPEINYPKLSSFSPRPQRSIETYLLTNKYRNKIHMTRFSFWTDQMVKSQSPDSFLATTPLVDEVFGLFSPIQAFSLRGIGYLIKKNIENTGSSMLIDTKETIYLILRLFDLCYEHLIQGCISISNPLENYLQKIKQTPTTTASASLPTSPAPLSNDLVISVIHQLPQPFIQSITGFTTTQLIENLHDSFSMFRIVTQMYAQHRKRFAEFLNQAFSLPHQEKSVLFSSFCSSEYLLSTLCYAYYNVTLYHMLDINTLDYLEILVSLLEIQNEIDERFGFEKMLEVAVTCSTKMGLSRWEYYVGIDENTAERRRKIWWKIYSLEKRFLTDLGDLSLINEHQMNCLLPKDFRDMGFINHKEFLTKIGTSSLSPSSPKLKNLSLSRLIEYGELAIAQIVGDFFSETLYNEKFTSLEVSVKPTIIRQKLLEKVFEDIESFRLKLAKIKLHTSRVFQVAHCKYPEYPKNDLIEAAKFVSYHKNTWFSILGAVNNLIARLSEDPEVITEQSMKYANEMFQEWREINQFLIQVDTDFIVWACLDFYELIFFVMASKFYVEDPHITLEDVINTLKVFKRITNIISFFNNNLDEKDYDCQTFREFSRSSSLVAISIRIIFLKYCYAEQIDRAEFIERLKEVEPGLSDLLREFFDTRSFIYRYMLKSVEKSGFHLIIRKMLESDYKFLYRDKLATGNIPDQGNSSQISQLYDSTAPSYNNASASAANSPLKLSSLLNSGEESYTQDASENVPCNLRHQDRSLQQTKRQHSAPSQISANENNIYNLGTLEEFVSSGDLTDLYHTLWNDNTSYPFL
How it was run: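 Each ungapped eight-base word and its reverse complement, pooled, received an E-score from the Universal PBM Analysis Suite. Underlying scans, normalised with masliner, recorded fluorescent anti-GST bound to GST-tagged yeast transcription factors. These were applied at about 100-200 nM to universal all-10-mer Agilent arrays double-stranded by primer extension.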

Sequence | PBM E-score
ACACCTAA | -0.157
ACGGAATG | 0.432
CAGAAACA | -0.148
GCAAACTA | -0.0365
AATCCGAT | 0.285
CTAAACAA | -0.208
ATCCCCCG | 0.278
ACCAACCT | -0.0633
CGAGGGGA | 0.0165
CGTTAATC | 0.0266
AGGTAAAT | -0.177
CGGGGCTC | 0.107
GGTGATAA | 0.0321
GGGAATAC | 0.162
GGATGCCA | -0.247
GGTCAGTA | -0.0368
ACAGTCTA | -0.209
CCACTTGA | -0.085
TAGCACTA | -0.216
GCTATTAC | -0.0754
CAGGAAAC | -0.0475
AACTTACG | -0.0454

Sequence | PBM E-score
TTAATCAA | -0.0535
GTACTATA | 0.0634
CCGAGACC | 0.244
GGGAAACC | 0.149
AAATCCGG | 0.39
GAACCGAA | 0.146
AAGTTGAC | -0.0507
CATCACCC | 0.23
GGAGCAAC | 0.0427
ACAGCGCT | 0.0308
CAAAAGCA | -0.153
GTGAAAAC | 0.0636
AGCGAAGC | -0.115
ACCCAACT | -0.161
AACCCCGC | 0.181
AATGCTCG | 0.108
CAAAAACA | -0.133
AATTGTTA | 0.0374
CAATAAAC | 0.0697
CCCTTCCA | -0.00559
GATTGAAC | -0.0537
ACGATATC | 0.103

Sequence | PBM E-score
TACATGCA | -0.149
AACGAATC | 0.134
ACCGATCA | 0.0886
ACTTTGCA | 0.00219
TACTCAAA | -0.0878
CCGTGTTC | 0.302
CCAGCCTA | -0.182
ATTGGTAC | 0.00164
ACGTTACA | -0.295
AACAGCGG | 0.0391
TCTCGAAA | -0.172
CGGGCTAG | 0.0893
GGTGGAAC | -0.0744
TGCGGAAA | 0.357
CACTAGAG | -0.16
AGTCGCGG | 0.0617
ACATATCC | 0.0848
GAGCCTCC | -0.0141
TAGATGCA | -0.206
ACTGTTCC | 0.222
AAGTCCCG | 0.222
AAATTGTC | 0.0406

Sequence | PBM E-score
ACGAGAAA | 0.119
AGCTTTGC | -0.0649
AAGTTAAT | -0.114
ATGTGCGC | 0.0633
CAGTGGAG | -0.0442
CGGCTTCA | 0.24
AGGCGTAG | -0.142
CGCTCGGC | 0.234
CCCGACCA | 0.155
ACAAGCAG | -0.164
CACTTGCG | -0.123
ACGGACGT | 0.137
CAATTGCA | -0.0954
GATGAGCA | -0.097
AATAGAAA | 0.0203
CACAAAGC | -0.0103
GTCCGCAC | 0.215
GAACCCTA | -0.0298
AGAGTTTC | -0.136
CAGGAGTA | -0.107
